# In patent publication US20250387505A1, “ANTI-FGFR3 ANTIBODY CONJUGATE AND MEDICAL USE THEREOF” (GENEQUANTUM HEALTHCARE (SUZHOU) CO., LTD., priority 2022, published 2025):
# T1: human FGFR3 (Homo sapiens, UniProt P22607)
# T1 construct: purchased R&D systems 1264-FR-050
# T1 sequence (P22607 23-377 isoform P22607-2 limits assumed): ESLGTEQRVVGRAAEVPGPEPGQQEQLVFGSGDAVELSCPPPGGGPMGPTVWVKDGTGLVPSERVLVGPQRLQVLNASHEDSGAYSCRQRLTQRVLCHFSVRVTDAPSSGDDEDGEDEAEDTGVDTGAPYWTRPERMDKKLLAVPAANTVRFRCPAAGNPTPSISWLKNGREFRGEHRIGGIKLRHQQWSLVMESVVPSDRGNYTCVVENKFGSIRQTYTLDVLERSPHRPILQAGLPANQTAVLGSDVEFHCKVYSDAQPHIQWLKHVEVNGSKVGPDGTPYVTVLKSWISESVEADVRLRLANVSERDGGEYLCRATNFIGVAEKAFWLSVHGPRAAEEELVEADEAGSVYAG
# T2: Human FGFR3-IIIb (Homo sapiens, UniProt P22607)
# T2 construct: purchased R&D systems 1264-FR-050
# T2 sequence (P22607 23-377 isoform P22607-2 limits assumed): T1 sequence (P22607 23-377 isoform P22607-2 limits assumed)
# T3: Human FGFR3-IIIc (Homo sapiens, UniProt P22607)
# T3 construct: purchased R&D systems 1264-FR-050
# T3 sequence (P22607 23-375 limits assumed): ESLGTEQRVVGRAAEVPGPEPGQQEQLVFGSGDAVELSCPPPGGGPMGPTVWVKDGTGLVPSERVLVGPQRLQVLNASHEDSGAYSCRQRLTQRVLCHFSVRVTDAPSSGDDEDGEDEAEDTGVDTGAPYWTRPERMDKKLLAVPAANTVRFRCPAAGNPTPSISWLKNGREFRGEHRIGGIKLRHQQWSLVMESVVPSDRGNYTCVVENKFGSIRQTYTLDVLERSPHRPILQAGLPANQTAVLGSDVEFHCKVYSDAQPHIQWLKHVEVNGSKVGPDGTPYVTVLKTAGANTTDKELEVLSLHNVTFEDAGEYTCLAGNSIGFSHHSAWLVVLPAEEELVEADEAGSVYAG
# T4: mouse FGFR3 (Mus musculus, UniProt Q61851)
# T4 construct: purchased R&D systems 710-MF-050
# T4 sequence (Q61851 21-369 limits assumed): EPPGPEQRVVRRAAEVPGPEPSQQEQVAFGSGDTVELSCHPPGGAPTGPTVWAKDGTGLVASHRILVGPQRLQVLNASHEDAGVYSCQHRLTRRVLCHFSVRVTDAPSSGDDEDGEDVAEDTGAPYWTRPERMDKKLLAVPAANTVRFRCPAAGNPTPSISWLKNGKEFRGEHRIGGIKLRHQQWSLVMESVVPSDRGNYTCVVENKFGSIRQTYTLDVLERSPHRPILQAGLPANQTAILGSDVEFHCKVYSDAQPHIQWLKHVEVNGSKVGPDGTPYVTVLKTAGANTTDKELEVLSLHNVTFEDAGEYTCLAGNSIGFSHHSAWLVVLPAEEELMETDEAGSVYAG
# B1: A9: anti-FGFR3 antibody, heavy chain SEQ ID NO: 12, light chain SEQ ID NO: 14 (antibody)
# heavy: EVQLLESGGGLVQPGGSLRLSCAASGFTFSSYDMSWVRQAPGKGLEWVSGIYSGDGSIYYADSVKGRFTISRDNSKNTLYLQMNSLRAEDTAVYYCAKDGPMNEESRFDYWGQGTLVTVSS[human IgG1 constant region not written out]
# light: QSVLTQPPSASGTPGQRVTISCSGSSSNIGNNYVSWYQQLPGTAPKLLIYADSKRPSGVPDRFSGSKSGTSASLAISGLRSEDEADYYCASWDYSLSGYVFGGGTKLTVLGQPKAAPSVTLFPPSSEELQANKATLVCLISDFYPGAVTVAWKADSSPVKAGVETTTPSKQSNNKYAASSYLSLTPEQWKSHRSYSCQVTHEGSTVEKTVAPTEC
# Tests used:
# cynomolgus FGFR3 [1] = assay: Affinity ELISA analysis of antibodies; assay type: binding; conditions: cynomolgus FGFR3, FIG. 2
# Description: (§1) 1) One microgram per milliliter of each human FGFR3 (R&D systems, 1264-FR-050), cynomolgus FGFR3 (Sino Biological, 90313-C02H) protein or mouse FGFR3 (R&D systems, 710-MF-050) was coated on 96-well plates at 4° C. for over-night, respectively. The plates were blocked in 3% skim milk containing anti-FGFR3-antibodies and incubated for 1 h at room temperature. After washing with PBST (0.1%), the anti-human Fab antibody conjugated horseradish peroxidase (HRP) (Thermo Scientific, 31482, Waltham, MA, USA) was added at a ratio of 1:3000. Following the wash, the plate was treated with TMB solution (Thermo Scientific, N301, Waltham, MA, USA) as an HRP substrate, and the reaction was stopped with STOP solution (Cell Signaling Technology, #7002, Danvers, MA, USA).
# (§2) The absorbance for each well was detected at 450 nm wavelength.
# human FGFR3 = target: T1, human FGFR3; assay: Affinity ELISA analysis of antibodies; assay type: binding; conditions: human FGFR3, FIG. 2
# Description: as §1, §2
# Human FGFR3-IIIb = target: T2, Human FGFR3-IIIb; assay: SPR analysis (Biacore 3000) of binding affinity
# Description: (§3) The binding affinity (KD value) of the anti-FGFR3 antibody was measured using a Biacore 3000. Human (FGFR3-IIIb and -IIIc, R&D systems, 1264-FR-050), mouse (R&D systems, 710-MF-050) and cynomolgus FGFR3 proteins (Sino Biological, 90313-C02H) were coated with an amine coupling kit (GE Healthcare Life Sciences, BR100050, Uppsala, Sweden).
# cynomolgus FGFR3 [2] = assay: SPR analysis (Biacore 3000) of binding affinity; conditions: FGFR3, Monkey
# Description: as §3
# Human FGFR3-IIIc = target: T3, Human FGFR3-IIIc; assay: SPR analysis (Biacore 3000) of binding affinity
# Description: as §3
# mouse FGFR3 = target: T4, mouse FGFR3; assay: SPR analysis (Biacore 3000) of binding affinity; conditions: N.B means antibody does not bind to FGFR3
# Description: as §3
# [3] = test system: AMB-BT-0050T cells (positive FGFR3 expression); assay: Cell binding analysis by flow cytometry; assay type: cell-based, human
# Description: 1) The cell surface binding efficiency of anti-FGFR3 antibodies were analyzed using flow cytometry. About 3.0×10^5 to 5.0×10^5 FGFR3-overexpressing or FGFR3 non-expression cells were incubated with anti-FGFR3 antibodies at 4° C. for 1 h. After washing twice with Flow Cytometry Staining Buffer, the cells were stained with the goat anti-human IgG cross-adsorbed secondary antibody conjugated with Alexa Fluor 488 (Invitrogen, A-11013, Carlsbad, CA, USA) diluted 1:200 in staining buffer at 4° C. for 30 min. Mean fluorescence intensity was analyzed by flow cytometry.
# The results of this analysis are shown in FIGS. 5 and 6.1, wherein AMB-BT-0050T is a cell with positive FGFR3 expression, while AMB-BT-0013T is a cell with negative FGFR3 expression. AMB-BT-0050T, AMB-BT-0013T is sampled from patients suffering brain cancer (glioblastoma).
molecule,measurement,setting,value
B1,specificity to FGFR3,cynomolgus FGFR3 [1],high specificity
same,specificity to FGFR3,human FGFR3,high specificity
same,Ka,Human FGFR3-IIIb,1.76E+6
same,Ka,cynomolgus FGFR3 [2],1.56E+6
same,Ka,Human FGFR3-IIIc,1.67E+6
same,KD,mouse FGFR3,N.B
same,Ka,mouse FGFR3,N.B
same,Kd,mouse FGFR3,N.B
same,binding affinity to FGFR3 positive cells versus FGFR3 negative cells,"[3]; AMB-BT-0050T versus AMB-BT-0013T, FIG. 5",significantly higher binding affinity to the FGFR3 positive cells than to FGFR3 negative cells
same,binding to AMB-BT-0050T cells,[3]; FIG. 6.1,bind to AMB-BT-0050T cells
